# Laboratory results from the supplement of paper PMC4967469.
# pIC50: −log10 of the molar value. IC50 is the fitted dose that halves viability relative to control wells, and lower means more sensitive; a fit beyond the top or the lowest dose is shown as a bound at that dose. AUC, from the same fit, is the share of area under the viability curve across the 256-fold dose range; it is 1 without any effect and falls as sensitivity rises. Where the top dose is marked as inferred, it comes from the curve model; the source does not state it.
# Compound: CCc1nc(-c2cccc(C)c2)c(-c2ccnc(NC(=O)c3ccccc3)c2)s1 [TAK-715]
# Test: Viability of human cancer cell lines after 72 h of drug (GDSC screen)
# Conditions: top dose inferred
# Experimental: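 Human cancer cell lines in 384-well plates, medium with 10% serum, drug for 72 h over a 256-fold dose range (nine 2-fold or five 4-fold steps up to the top dose). Adherent lines were fixed and stained with the nucleic acid dye Syto60, suspension lines read with resazurin; signal relative to control wells, capped at 0 and 100%. One two-parameter sigmoid per drug and line, fitted in a mixed model over all curves with the slope shared within a line.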
Cell Line,AUC,pIC50
"HCC2998 (large intestine, adherent, top dose 20 µM)",0.967,< 4.70
"HCC-15 (lung squamous cell carcinoma, adherent, top dose 20 µM)",0.938,< 4.70
"HCC-33 (small cell lung carcinoma, adherent, top dose 20 µM)",0.982,< 4.70
"HCC-44 (lung adenocarcinoma, adherent, top dose 20 µM)",0.941,< 4.70
"HCC-56 (large intestine, adherent, top dose 20 µM)",0.959,< 4.70
"HCC-78 (lung adenocarcinoma, adherent, top dose 20 µM)",0.874,< 4.70
"HCC-827 (lung adenocarcinoma, adherent, top dose 20 µM)",0.619,5.55
"HCE-4 (oesophagus, adherent, top dose 20 µM)",0.952,< 4.70
"HCT-15 (large intestine, adherent, top dose 20 µM)",0.957,< 4.70
"HCT-116 (large intestine, adherent, top dose 20 µM)",0.907,< 4.70
"HD-MY-Z (Hodgkin lymphoma, adherent, top dose 20 µM)",0.934,< 4.70
"HDLM-2 (Hodgkin lymphoma, suspension, top dose 20 µM)",0.92,< 4.70
"HDQ-P1 (breast, adherent, top dose 20 µM)",0.981,< 4.70
"HEC-1 (endometrium, adherent, top dose 20 µM)",0.962,< 4.70
"HEL (acute myeloid leukaemia, semi-adherent, top dose 20 µM)",0.896,4.76
"HGC-27 (stomach, adherent, top dose 20 µM)",0.907,< 4.70
"HH (T-cell leukaemia, suspension, top dose 20 µM)",0.904,< 4.70
"HL-60 (acute myeloid leukaemia, suspension, top dose 20 µM)",0.964,< 4.70
"HLE (liver, adherent, top dose 20 µM)",0.989,< 4.70
"HMV-II (melanoma, adherent, top dose 20 µM)",0.96,< 4.70
"HN (head and neck, adherent, top dose 20 µM)",0.848,4.87

Cell Line,AUC,pIC50
"HO-1-N-1 (head and neck, adherent, top dose 20 µM)",0.965,< 4.70
"HO-1-u-1 (head and neck, adherent, top dose 20 µM)",0.953,< 4.70
"HOP-62 (lung adenocarcinoma, adherent, top dose 20 µM)",0.884,< 4.70
"HOP-92 (large cell lung carcinoma, adherent, top dose 20 µM)",0.975,< 4.70
"HOS (osteosarcoma, adherent, top dose 20 µM)",0.992,< 4.70
"HPAC (pancreas, adherent, top dose 20 µM)",0.944,< 4.70
"HPAF-II (pancreas, adherent, top dose 20 µM)",0.911,< 4.70
"HSC-2 (head and neck, adherent, top dose 20 µM)",0.976,< 4.70
"HSC-3 (head and neck, adherent, top dose 20 µM)",0.897,4.73
"HSC-4 (head and neck, adherent, top dose 20 µM)",0.969,< 4.70
"HSC-39 (stomach, suspension, top dose 20 µM)",0.927,< 4.70
"HT55 (large intestine, adherent, top dose 20 µM)",0.979,< 4.70
"HT (B-cell lymphoma, suspension, top dose 20 µM)",0.964,< 4.70
"HT-3 (cervix, adherent, top dose 20 µM)",0.978,< 4.70
"HT-29 (large intestine, adherent, top dose 20 µM)",0.958,< 4.70
"HT-115 (large intestine, adherent, top dose 20 µM)",0.859,4.84
"HT-144 (melanoma, adherent, top dose 20 µM)",0.982,< 4.70
"HT-1080 (fibrosarcoma, adherent, top dose 20 µM)",0.985,< 4.70
"HT-1197 (bladder, adherent, top dose 20 µM)",0.976,< 4.70
"HT-1376 (bladder, adherent, top dose 20 µM)",0.928,< 4.70
"HTC-C3 (thyroid, adherent, top dose 20 µM)",0.952,< 4.70

Cell Line,AUC,pIC50
"HUTU-80 (digestive system, adherent, top dose 20 µM)",0.886,4.81
"HeLa (cervix, adherent, top dose 20 µM)",0.933,< 4.70
"Hep 3B2_1-7 (liver, adherent, top dose 20 µM)",0.973,< 4.70
"Hey (ovary, adherent, top dose 20 µM)",0.942,< 4.70
"Hs633T (fibrosarcoma, adherent, top dose 20 µM)",0.978,< 4.70
"Hs683 (glioma, adherent, top dose 20 µM)",0.947,< 4.70
"Hs746T (stomach, adherent, top dose 20 µM)",0.792,4.89
"Hs766T (pancreas, adherent, top dose 20 µM)",0.983,< 4.70
"Hs939-T (melanoma, adherent, top dose 20 µM)",0.985,< 4.70
"Hs940-T (melanoma, adherent, top dose 20 µM)",0.984,< 4.70
"Hs-445 (Hodgkin lymphoma, suspension, top dose 20 µM)",0.879,4.75
"Hs-578-T (breast, adherent, top dose 20 µM)",0.986,< 4.70
"HuCCT1 (biliary tract, adherent, top dose 20 µM)",0.957,< 4.70
"HuH-7 (liver, adherent, top dose 20 µM)",0.972,< 4.70
"HuO9 (osteosarcoma, adherent, top dose 20 µM)",0.906,< 4.70
"HuO-3N1 (osteosarcoma, adherent, top dose 20 µM)",0.982,< 4.70
"HuP-T3 (pancreas, adherent, top dose 20 µM)",0.95,< 4.70
"HuP-T4 (pancreas, adherent, top dose 20 µM)",0.91,< 4.70
"IA-LM (large cell lung carcinoma, adherent, top dose 20 µM)",0.966,< 4.70
"IGR-1 (melanoma, adherent, top dose 20 µM)",0.936,< 4.70
"IGR-37 (melanoma, adherent, top dose 20 µM)",0.989,< 4.70

Cell Line,AUC,pIC50
"IHH-4 (thyroid, semi-adherent, top dose 20 µM)",0.925,< 4.70
"IM-95 (stomach, adherent, top dose 20 µM)",0.886,< 4.70
"IMR-5 (neuroblastoma, adherent, top dose 20 µM)",0.871,4.86
"IPC-298 (melanoma, adherent, top dose 20 µM)",0.971,< 4.70
"IST-MEL1 (melanoma, adherent, top dose 20 µM)",0.967,< 4.70
"IST-MES1 (mesothelioma, adherent, top dose 20 µM)",0.978,< 4.70
"IST-SL1 (small cell lung carcinoma, semi-adherent, top dose 20 µM)",0.948,< 4.70
"IST-SL2 (small cell lung carcinoma, suspension, top dose 20 µM)",0.864,4.76
"J82 (bladder, adherent, top dose 20 µM)",0.974,< 4.70
"JAR (urogenital system, adherent, top dose 20 µM)",0.887,< 4.70
"JEG-3 (urogenital system, adherent, top dose 20 µM)",0.974,< 4.70
"JHH-1 (liver, adherent, top dose 20 µM)",0.943,< 4.70
"JHH-2 (liver, adherent, top dose 20 µM)",0.934,< 4.70
"JHH-4 (liver, adherent, top dose 20 µM)",0.895,< 4.70
"JHH-6 (liver, adherent, top dose 20 µM)",0.968,< 4.70
"JHH-7 (liver, adherent, top dose 20 µM)",0.939,< 4.70
"JHOS-2 (ovary, adherent, top dose 20 µM)",0.921,< 4.70
"JHOS-3 (ovary, adherent, top dose 20 µM)",0.939,< 4.70
"JHU-011 (head and neck, adherent, top dose 20 µM)",0.912,< 4.70
"JHU-022 (head and neck, adherent, top dose 20 µM)",0.981,< 4.70
